SMILES strings stand for the structures. In all, about 39,000 compounds went through this assay and about 220 (0.56%) showed activity. The list shows a part of the results.
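Also: static incubation at 37 °C against the wild-type strain, values averaged over two biological replicates.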

The experiment relates to Escherichia coli K-12 BW25113. Description: relative growth (OD600 normalised to plate interquartile mean) (fraction); higher = less growth inhibition, active = 0.2 or less. Particulars: 50 µM; LB; incubation time: overnight (16-24 h).
For `COC(=O)c1nc[nH]c1C(=O)OC`, the relative growth was inactive: 1.07.

`O=C1N[C@H](Cc2ccccc2)COC(=O)[C@@H](Cc2ccc(F)cc2)CCC=CC[C@@H]1CC(=O)N(CCO)Cc1ccccc1`: the relative growth was inactive: 1.01.

For the compound `C[C@@H]1CCCCO[C@@H](CN(C)Cc2ccc3c(c2)OCO3)[C@@H](C)CN([C@H](C)CO)C(=O)c2cc(NC(=O)CCCCCC(=O)Nc3ccccc3N)ccc2O1`, the relative growth was inactive: 0.98.

`Cc1noc(C)c1NC(=O)Nc1ccc2c(c1)C(=O)N([C@H](C)CO)C[C@@H](C)[C@@H](CN(C)CC1CCCCC1)OCCCC[C@H](C)O2`: the relative growth is inactive: 0.992.

Regarding `CCS(=O)(=O)N[C@@H]1C=C[C@H](CC(=O)NCc2ccc(Cl)cc2)O[C@H]1CO`, the relative growth is inactive: 0.998.

`CC[C@@H]1/C=C(\C)C[C@H](C)C[C@H](OC)[C@H]2O[C@@](O)(C(=O)C(=O)N3CCCC[C@H]3C(=O)O[C@H](/C(C)=C/[C@@H]3CC[C@H](Cl)[C@H](OC)C3)[C@H](C)[C@@H](O)CC1=O)[C@H](C)C[C@@H]2OC`: the relative growth is inactive: 1.12.

`C[C@@H]1CCCCO[C@H](CN(C)CC2CC2)[C@H](C)CN([C@@H](C)CO)C(=O)c2cc(NC(=O)Nc3cccc4ccccc34)ccc2O1`: the relative growth was inactive: 0.98.

For the compound `C[C@H]1CN([C@@H](C)CO)C(=O)c2cc(NC(=O)Nc3ccc4c(c3)OCO4)ccc2O[C@H]1CN(C)Cc1ccc(C(F)(F)F)cc1`, the relative growth was inactive: 0.953.

Turning to `CN1C(=O)c2cc(NC(=O)c3ccc(F)c(F)c3)ccc2OC[C@H]2O[C@H](CC(=O)N3CCOCC3)CC[C@H]21`, the relative growth was inactive: 1.

In the case of `O=C(O)[C@@H]1[O][Sb]2([OH])([O][Sb]34([OH])[O][C@H]([C@H](O)CO)[C@H]([O]3)[C@H](C(=O)O)[O]4)[O][C@H]([C@H](O)CO)[C@@H]1[O]2`, the relative growth was inactive: 0.951.

In the case of `C[C@@H]1CN([C@H](C)CO)C(=O)c2cc(NC(=O)NC3CCCCC3)ccc2O[C@H]1CN(C)S(C)(=O)=O`, the relative growth was inactive: 1.03.

Consider `CC1(C)CNCC(=O)NC1`, for which the relative growth was inactive: 0.966.

With `Cc1ccc(-c2ccc3c(c2)O[C@H](CN(C)Cc2cncnc2)[C@H](C)CN([C@H](C)CO)S3(=O)=O)cc1`, the relative growth was inactive: 1.02.

For the compound `COc1ccc(CN(C)C[C@H]2OCCCC[C@H](C)Oc3ccc(NC(=O)Nc4c(C)noc4C)cc3C(=O)N([C@H](C)CO)C[C@@H]2C)cc1`, the relative growth is inactive: 1.01.

For the compound `OCC(O)C(O)C(O)C(O)CO` (stereo unspecified), the relative growth is inactive: 1.07.

Consider `Cc1ccc(S(=O)(=O)N(C)C[C@@H]2Oc3ncc(C#Cc4ccccc4)cc3C(=O)N([C@H](C)CO)C[C@@H]2C)cc1`, for which the relative growth was inactive: 1.04.

With `COc1ccc(S(=O)(=O)Nc2ccc3c(c2)C(=O)N([C@H](C)CO)C[C@H](C)[C@@H](CN(C)S(=O)(=O)c2cccs2)O3)cc1`, the relative growth was inactive: 0.994.

As to `CCCCN1CC=C[C@@]23O[C@@H]4C=CCOC(=O)[C@@H]4[C@H]2C(=O)N([C@@H](C)CO)[C@@H]3C1=O`, the relative growth is inactive: 1.04.

For `C[C@H]1CN([C@@H](C)CO)C(=O)Cc2cc(NC(=O)Cc3cn(C)c4ccccc34)ccc2O[C@H]1CN(C)S(C)(=O)=O`, the relative growth was inactive: 0.983.

With `Cc1ccn2c(=O)c(C(=O)O)cnc2c1`, the relative growth was inactive: 0.966.

As for `C[C@H]1CCCCO[C@@H](CN(C)S(C)(=O)=O)[C@@H](C)CN([C@@H](C)CO)C(=O)c2cc(N(C)C)ccc2O1`, the relative growth was inactive: 1.01.

For `C[C@@H]1CCCCO[C@H](CN(C)C(=O)Nc2ccc3c(c2)OCO3)[C@H](C)CN([C@@H](C)CO)C(=O)c2cc(NC(=O)Nc3ccc4c(c3)OCO4)ccc2O1`, the relative growth is inactive: 1.02.

As to `Cc1ccc(S[C@]2(C(=O)NCc3ccccc3)CC(=O)N(Cc3ccccc3C(F)(F)F)[C@@H]2c2ccc(CO)cc2I)cc1`, the relative growth is inactive: 0.989.

Consider `Cc1noc(C)c1S(=O)(=O)N(C)C[C@H]1Oc2ccc(NC(=O)Cn3cnnn3)cc2CC(=O)N([C@H](C)CO)C[C@H]1C`, for which the relative growth is inactive: 0.997.

As for `CC(C)=CCCC(C)(O)C1CC=C(C)CC1` (stereo unspecified), the relative growth is inactive: 1.02.

For `C[C@H]1CN([C@@H](C)CO)C(=O)c2cccc(NC(=O)Nc3ccc(F)cc3)c2O[C@@H]1CN(C)Cc1ccc(C(F)(F)F)cc1`, the relative growth is inactive: 0.841.

For the compound `COc1ccc(S(=O)(=O)N(C)C[C@@H]2Oc3ccc(NC(=O)C4CC4)cc3CC(=O)N([C@H](C)CO)C[C@H]2C)cc1`, the relative growth is inactive: 1.01.

For `Cc1noc(C)c1NC(=O)Nc1ccc2c(c1)C(=O)N([C@@H](C)CO)C[C@H](C)[C@H](CN(C)S(=O)(=O)c1ccccc1)O2`, the relative growth was inactive: 0.983.

Turning to `C[C@@H]1CN([C@H](C)CO)C(=O)Cc2cc(NC(=O)CCN3CCOCC3)ccc2O[C@@H]1CN(C)CC1CC1`, the relative growth was inactive: 0.964.

For `C[C@H](CO)N1C[C@H](C)[C@H](CN(C)C(=O)CN2CCOCC2)Oc2ncc(C#C[C@@H](C)O)cc2C1=O`, the relative growth is inactive: 0.993.

For `O=C(O)[C@H](Cc1ccc(Nc2nccc3ccncc23)cc1)NC1=C(Br)C(=O)C12CCCCC2`, the relative growth was inactive: 1.05.

`CC1CC2C(C(O)CC3(C)C2CCC3(O)C(=O)CO)C2(C)C=CC(=O)C=C12` (stereo unspecified): the relative growth was inactive: 1.18.

`COCC(=O)Nc1ccc2c(c1)C(=O)N(C)C[C@@H](OC)[C@H](C)CN(Cc1ccccc1C(=O)O)[C@H](C)CO2`: the relative growth is inactive: 1.02.

Regarding `Cc1noc(C)c1S(=O)(=O)Nc1ccc2c(c1)C(=O)N([C@@H](C)CO)C[C@H](C)[C@H](CN(C)C)OCCCC[C@H](C)O2`, the relative growth was inactive: 1.03.

Take `C[C@H](CO)N1C[C@H](C)[C@H](CN(C)S(=O)(=O)c2cn(C)cn2)Oc2c(NC(=O)Nc3ccccc3)cccc2C1=O`: the relative growth was inactive: 0.983.

Take `C[C@@H]1CN([C@@H](C)CO)C(=O)c2cc(NS(=O)(=O)c3cn(C)cn3)ccc2O[C@@H](C)CCCCO[C@H]1CN(C)C(=O)Nc1cccc2ccccc12`: the relative growth is inactive: 0.971.

Consider `CC(C)c1ccc(/C=C2\CSc3ccccc3C2=O)cc1`, for which the relative growth was inactive: 1.01.

For the compound `COCC(=O)N1C[C@H](C)[C@H](OC)CN(C)C(=O)c2cc(NC(=O)Nc3cccc(F)c3)ccc2OC[C@@H]1C`, the relative growth was inactive: 0.971.

For the compound `C[C@@H](O)COC[C@H]1O[C@@H]2O[C@H]3[C@H](O)[C@@H](O)[C@@H](O[C@H]4[C@H](O)[C@@H](O)[C@@H](O[C@H]5[C@H](O)[C@@H](O)[C@@H](O[C@H]6[C@H](O)[C@@H](O)[C@@H](O[C@H]7[C@H](O)[C@@H](O)[C@@H](O[C@H]8[C@H](O)[C@@H](O)[C@@H](O[C@H]1[C@H](O)[C@H]2O)O[C@@H]8COC[C@@H](C)O)O[C@@H]7COC[C@@H](C)O)O[C@@H]6COC[C@@H](C)O)O[C@@H]5COC[C@@H](C)O)O[C@@H]4COC[C@@H](C)O)O[C@@H]3COC[C@@H](C)O`, the relative growth is inactive: 1.04.

Consider `C[C@@H]1CCCCO[C@@H](CN(C)CC2CC2)[C@H](C)CN([C@H](C)CO)C(=O)c2cc(NC(=O)Cc3ccccc3)ccc2O1`, for which the relative growth was inactive: 0.996.

With `CSc1ncccc1C(N)=O`, the relative growth was inactive: 1.01.

Consider `Nc1ccc([C@@H](O)[C@@H](O)CO)cc1`, for which the relative growth is inactive: 0.984.

As for `O=C(O)C12CC(C1)C2`, the relative growth is inactive: 1.

For the compound `CC1=CC2C(C(C)C)CCC(C)(O)C2CC1` (stereo unspecified), the relative growth was inactive: 0.758.

As for `NC(=S)c1cnccn1`, the relative growth was inactive: 0.99.

In the case of `COc1ccc(S(=O)(=O)Nc2ccc3c(c2)C(=O)N([C@@H](C)CO)C[C@@H](C)[C@@H](CN(C)C(=O)Nc2ccc4c(c2)OCO4)OCCCC[C@@H](C)O3)cc1`, the relative growth was inactive: 0.997.

Take `Br.Cc1ccc(Sc2ccccc2N2CCNCC2)c(C)c1`: the relative growth is inactive: 0.963.

Turning to `COCC(=O)Nc1ccc2c(c1)OC[C@@H](C)N(C(=O)Cc1cccnc1)C[C@@H](C)[C@@H](OC)CN(C)C2=O`, the relative growth is inactive: 0.969.

On to `Cc1noc(C)c1NC(=O)N(C)C[C@H]1OCCCC[C@H](C)Oc2ccc(NC(=O)c3ccccc3)cc2C(=O)N([C@@H](C)CO)C[C@H]1C`, for which the relative growth was inactive: 0.98.

Turning to `Cc1ccc(S(=O)(=O)Nc2ccc3c(c2)CC(=O)N([C@H](C)CO)C[C@H](C)[C@H](CN(C)S(=O)(=O)c2cccs2)O3)cc1`, the relative growth is inactive: 1.01.

For `C[C@@H]1CCCCO[C@@H](CN(C)Cc2ccncc2)[C@H](C)CN([C@H](C)CO)C(=O)c2cc(NC(=O)Nc3ccccc3)ccc2O1`, the relative growth was inactive: 1.01.

Consider `Cc1cc(C)c(/N=c2\scc(C)n2Cc2ccccc2)c(C)c1`, for which the relative growth was inactive: 1.

As for `C[C@H](CO)N1C[C@H](C)[C@@H](CN(C)Cc2cccc(C(=O)Nc3ccccc3N)c2)OCc2ccccc2-c2c(n(C)c3ccccc23)C1=O`, the relative growth was inactive: 0.996.

As to `O[C@@H]1[C@@H](O)[C@H]2OC[C@@H](O2)[C@H]1O`, the relative growth was inactive: 0.993.

For the compound `Cc1o[nH]c(=O)c1CC[C@@H](N)C(=O)O`, the relative growth is inactive: 0.992.

As for `Cc1ccc(S(=O)(=O)N(C)C[C@H]2OCCCC[C@@H](C)Oc3ccc(NC(=O)Nc4c(C)noc4C)cc3C(=O)N([C@@H](C)CO)C[C@@H]2C)cc1`, the relative growth is inactive: 0.961.

With `Cc1noc(C)c1NC(=O)N(C)C[C@H]1Oc2c(NS(C)(=O)=O)cccc2C(=O)N([C@H](C)CO)C[C@@H]1C`, the relative growth was inactive: 1.01.

With `C[C@H]1CCCCO[C@H](CN(C)C(=O)Nc2ccc(F)cc2)[C@@H](C)CN([C@@H](C)CO)C(=O)c2cc(NS(=O)(=O)c3ccc(Cl)cc3)ccc2O1`, the relative growth was inactive: 0.987.

Turning to `C#CCCCCCCCCCCCC(O)CC(O)CO.C=CCCCCCCCCCCCC(O)CC(O)CO` (stereo unspecified), the relative growth is inactive: 0.979.

As for `O=C(C[C@H]1C[C@H]2c3cc(NS(=O)(=O)c4ccc(F)cc4)ccc3O[C@H]2[C@H](CO)O1)NCc1ccccc1`, the relative growth is inactive: 0.995.

On to `C[C@@H]1CCCCO[C@H](CN(C)C(=O)NC2CCCCC2)[C@H](C)CN([C@H](C)CO)C(=O)c2cc(NC(=O)CCC(F)(F)F)ccc2O1`, for which the relative growth is inactive: 1.02.

For the origin of these results see the supplement of paper PMC9446081.
